Results reported in the supplement of paper PMC11417369.
± gives the standard deviation of the averaged measurements. The list shows a part of the results.

Each sequence was assayed on PfAP2-I AP2 domain 3 (GST-tagged) (assay: gcPBM binding intensity (ln(normalized median fluorescence intensity)); higher = stronger DNA binding).
Summary of the method: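 Alexa488 anti-GST antibody, scanned at 488 nm, detected GST-tagged P. falciparum DNA-binding domains that had been expressed in E. coli and incubated for 1 h on an Agilent 4 × 180k array. The array carried primer-extended double-stranded 36-bp intergenic genomic probes and negative controls. Binding intensity is the highest Masliner-normalised natural-log median intensity across replicate spots of either orientation of each probe.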

Sequence	gcPBM binding intensity (ln)
ATTCACTGGTATGCATGAAAAAAAATATTATTATAA [CACACA_negctrl_site702]	7.92 ± 0.62
ATTTTGATAACCGTACGTACATATATATATATATAT [XGTACX_site6605]	9.46 ± 0.12
TGAATACTTATGTTCGCACACATGCAAATTAAAAAA [CACACA_site4048]	9.9 ± 1.1
TTATGTGTATACTAAGAACACACAAGTTACTTGGTG [CACACA_site8467]	7.5 ± 0.53
AACACATACAAACACACACACAAAAAAAAAAAAAAA [CACACA_site393]	8.29 ± 0.36
ATTATATATGTATGGTGTACTAAGAATATTTTTTTA [XGTACX_site1950]	8.29 ± 0.11
CCCGAACAAACAAATAAACACACAAAAAAAAATATA [CACACA_site8540]	7.82 ± 0.92
TATTGAAAAAATAAAAGTACAAACTCTTATAATATG [XGTACX_site8196]	7.64 ± 0.37
ATTCAATATAAATACACACACACTTTTAATAATTAA [CACACA_site5963]	7.87 ± 0.41
CTAAACAAAAAATAATGTACACATACATAAAAAATA [XGTACX_site1808]	7.84 ± 0.092
ACAATACAAATATATACACACATACATACATACATA [CACACA_site5699]	8.24 ± 0.83
TATTTATTAAAACACACACACACACCGACAAAATAA [CACACA_site4293]	8.26 ± 0.13
TTAATTTGTAAATAATGTACATATAAATGGAAAGTA [XGTACX_site2743]	8.4 ± 0.45
TAATAAAACATATATACACACATTATGTATACATAT [CACACA_site1703]	7.61 ± 0.42
TTAATATTTACAAAATGTACAGATTATTTATTGTTG [XGTACX_site1270]	7.41 ± 0.3
TTTTTTAATATTTATACATGCATGCCGATTACTATA [TGCATGCA_site26]	7.91 ± 0.67
AATAATTATAATAAGGGTACGTATCTCACAGGAAAA [XGTACX_site4187]	7.86 ± 0.71
AAATATGTCAAATATACACACATAATAACTAGAATA [CACACA_site7151]	7.46 ± 0.54
TATATATATTTAAAAAGTACAAAAAAAAAAAATGAA [XGTACX_site374]	7.95 ± 0.57
TATGTAGATAAATAAGCACACACCAAACATATAAAA [CACACA_site1182]	8.42 ± 0.61
ATCAGTCGAGATGACAGTACACAGTAGCCAGGAAAT [XGTACX_site4932]	7.94 ± 0.69
AAATGTTGAAATGATACACACATATAAATATAAATA [CACACA_site7229]	7.71 ± 0.58

Sequence	gcPBM binding intensity (ln)
CCCTGAGCACTTTCGTGTACTAATAGTAACAATAAT [XGTACX_site1418]	10.4 ± 0.11
AAACAAATGTATATGTGTACTTATTTTTTTGTATGT [XGTACX_site7134]	7.89 ± 0.26
ATAAAGAAAAGGAACACACAAATATGTAAATATGTA [CACACA_site6356]	7.65 ± 0.68
TTACACATAAATACCATATAAATATAATGCATATCT [CACACA_negctrl_site1731]	7.82 ± 0.61
TAAAATATTATCTACGCACACATTAAAATAAAAAAA [CACACA_site3709]	8.32 ± 0.2
AAAACATTATTCCATACACACCATACTTTTTAATAA [CACACA_site7326]	7.94 ± 0.59
CATTTGCACACGCACACACACATAAAAAGAAAAATA [CACACA_site6297]	9.35 ± 0.13
TCTTGACTAAATATATGTACATATATTTTAATAATA [XGTACX_site701]	7.84 ± 0.43
TAAGTGCTTTTCAACTGTACCTTCCATTTATTTATT [XGTACX_site8589]	9.13 ± 0.17
ACTACATAATATTTACGTACCTAAAAAATTCTTATA [XGTACX_site509]	7.97 ± 0.33
AAAAAAAAAAAAAATACACACGTGAATGTATTGTTT [CACACA_site4856]	8.21 ± 0.45
TTCTTATTTTATATTTCACACATTTTTACTATACTT [CACACA_site5817]	8.24 ± 0.59
GTATTCAAAAGTGAAACATGCAATAATATATATATA [TGCATGCA_site617]	9.14
AAGGAGCCTATGAACACACACATGTACCTATATTAA [CACACA_site7838]	7.81 ± 0.72
ATACGTATTTATTTCACACACGTTAAAAAAATAAAA [CACACA_site6027]	7.91 ± 0.45
AGAATGAAATAATATACACACAAAGGAAAAATGTAA [CACACA_site3911]	8.04 ± 0.45
TGTACATAAATCTAATTATTATATGTGTATATATAT [CACACA_negctrl_site1582]	8.48 ± 0.51
AGTACAGACATAGACACACACACACCCATAAAAAAA [CACACA_site1515]	8.02 ± 0.22
TTAAGATAGCAAATATGTACACATTTGTAAAATAAA [XGTACX_site4837]	7.94 ± 0.41
TCACATATTATCTTTACACACTATATATAAGTTTTA [CACACA_site2790]	8.15 ± 0.57
TCATGTTTTACAAAAACACACAAATGAATATAAACC [CACACA_site1161]	8.03 ± 0.59
AATATAATAATAAAAACACACACGTTGATTGTATTA [CACACA_site2381]	7.57 ± 0.46

Sequence	gcPBM binding intensity (ln)
TAAAAATTCAATTGCACACGCACATATTTTAATAAG [CACACA_site2014]	8.8 ± 0.057
CGTATGCAAGGAACCACACACACACCCATAAATGTA [CACACA_site749]	7.92 ± 0.52
AAAAAATAGACATATACACACATATGTATTTATAAT [CACACA_site5225]	7.5 ± 0.36
TTTTTTTTTATAAGGTGTACGTAAAATGTGTAGGTC [XGTACX_site3585]	8.89 ± 0.16
TTAAAAATAAAAAATACACACTCTAGTCCATGTAAC [CACACA_site3640]	7.68 ± 0.4
ATTTCATATAGTGTAGTGCAATTTTAAGCATCAAGG	9.485 ± 0.007
ATGTCATTATATACATGTACGCATATCTGTTTATCC [XGTACX_site3947]	8.05 ± 0.62
CCTATAATAAATAATACACACATATTGTAAATATAT [CACACA_site7496]	7.74 ± 0.38
TAATAAATATATAATTGTACTTAAAAGAATATAAAA [XGTACX_site2928]	7.65 ± 0.47
AATATATACCAACATAAATATATATATATATATATA [TGCATGCA_negctrl_site334]	9.64 ± 0.64
AAGTGTATATAAAAATGTACATATTTCGATTTAAAT [XGTACX_site4161]	7.93 ± 0.54
ATATATATATATATATGTACATAATTAATAATTAGA [XGTACX_site5672]	9.43 ± 0.74
TTACACATATTATATATATATAAAAAAAAAAAATAT [CACACA_negctrl_site1684]	7.84 ± 0.59
AAAAATCGATACAAGCGTACAAAATAAAATAAAAAT [XGTACX_site5546]	8.09 ± 0.57
ACCAATAATATACATACACACATAAAGGTTTATATA [CACACA_site315]	7.95 ± 0.44
TCTATTAACTGATGTGCATGTTATAACCTAGAAGTA [TGCATGCA_site359]	8.18 ± 0.54
AGTTCGAATATATAAAGTACATAATTATATATTTGC [XGTACX_site2604]	7.66 ± 0.54
TAATATCATTTAGACACACACTCTTACAATATGTAA [CACACA_site5434]	7.62 ± 0.43
TGGATTCGTATATGTAGTACTATTTATATGTGATTT [XGTACX_site1581]	7.71 ± 0.43
TCTTATCCTACTTTTATTTTTACTTTTTTTTCTTAT [CACACA_negctrl_site111]	7.83 ± 0.71
TATATATATATATGTATATATGTATATCTATATTTA [CACACA_negctrl_site131]	9.24 ± 0.49
TAAATTGAGTATATTACACACATATAAATATATTAT [CACACA_site4027]	7.58 ± 0.4

Sequence	gcPBM binding intensity (ln)
AATATGCCTCCCCAAAAAAAATATATATATATTTAT [GTGCAC_negctrl_site716]	8.72 ± 0.38
TGGTTATAATTGTACGCATGTAATTACATATTCTCT [TGCATGCA_site599]	7.82 ± 0.68
TATATTTAAATATATACACACATTATCATTTTCATA [CACACA_site1708]	7.72 ± 0.42
TATCATTTGGTCTTTTACTTTTTCTGTTTTTTTTTT [CACACA_negctrl_site976]	7.84 ± 0.47
TTTTTTACTATATCAATTACAAAACAAAAAAAAAAA [GTGCAC_negctrl_site683]	8.15 ± 0.79
TGATAAAATATTAAATTATTTCTTTATTTAAAGATT [CACACA_negctrl_site370]	7.21 ± 0.32
AAATATGTTTCAAAAAGTACATTTCTATCTTTTTTT [XGTACX_site7178]	7.71 ± 0.56
TCTTACAAGGAACTAATAAAATTGTAGTTTGTATTT [CACACA_negctrl_site386]	7.48 ± 0.75
AAGTATTTCCTAAAATGTACATATAAATAAGTATAT [XGTACX_site1282]	7.73 ± 0.41
AAATCTTAATAAAGTTGTACATAATTATGTTTAATA [XGTACX_site3348]	7.59 ± 0.4
TTATTATTTATTTTTTATTATTATTATTTTTTTTTA [XGTACX_negctrl_site76]	7.53 ± 0.46
CATATATTTTGAAACACACACATATAAAATATACAT [CACACA_site6664]	8 ± 0.62
GAAAAGATTTAAAAATGTACAAAAGAAAAAAAAAAA [XGTACX_site6916]	8.09 ± 0.92
TTAAAATTAAAATACGTACACACCTTATCTTTTTGG [CACACA_site7982]	8.04 ± 0.3
AACCTCATGGACATATGTACACATATACAATTATTT [XGTACX_site6533]	8.16 ± 0.54
TTATCTTACATATATCATTAAATCATATAACAAAAA [XGTACX_negctrl_site517]	7.55 ± 0.48
TTATGTATTTTAAATGGTTTTATTATAAAGTTTAAT [CACACA_negctrl_site1470]	7.52 ± 0.55
GTTATATTTAAAATAGTGCAATAAAAATAATAATAT	11.4 ± 0.67
CCTTTATAATTGGAAACACACATATAAAGTATATAT [CACACA_site3900]	7.68 ± 0.59
CACAAATATACAAATACACACAAATATACGCATATA [CACACA_site2384]	7.59 ± 0.4
ATATAATATATATACAAACACACAATTGTGTCCACA [CACACA_site1748]	7.92 ± 0.4
AAAATACATGGACACACACACACACCGATATATATA [CACACA_site5885]	8.28 ± 0.79
